We go through nine compounds from patent US10183009B2, “Therapeutic compounds and uses thereof” (GENENTECH, INC., priority 2014, dated 2019).

The target of one experiment is TAF1-BD2 (Homo sapiens (Human), UniProt P21675). Kind of experiment: TAF1-BD2 TR-FRET Binding Assay. As to conditions: Assay: TAF-1.
For `C=CCCn1cc(-c2cccc(-c3nnc(C)o3)c2)c2cc[nH]c2c1=O` [Example 18, 6-but-3-enyl-4-[3-(5-methyl-1,3,4-oxadiazol-2-yl)phenyl]-1H-pyrrolo[2,3-c]pyridin-7-one], the IC50 was 95 nM. In the case of `C/C=C/Cn1cc(-c2ccc(C(N)=O)c(Cl)c2)c2cc[nH]c2c1=O` [Example 44, 4-[6-[(E)-but-2-enyl]-7-oxo-1H-pyrrolo[2,3-c]pyridin-4-yl]-2-chloro-benzamide], the IC50 was found to be 1600 nM.

In turn, `C=CCCn1cc(-c2cc(F)cc(C(=O)N3CCOCC3C)c2)c2cc[nH]c2c1=O` (stereo not drawn) [Example 49, 6-but-3-enyl-4-[3-fluoro-5-(3-methylmorpholine-4-carbonyl)phenyl]-1H-pyrrolo[2,3-c]pyridin-7-one] displayed a concentration for half-maximal inhibition (IC50) of 19 nM. `C=CCCn1cc(-c2ccc(Cl)c(C(=O)N3CCOCC3)c2)c2cc(C)[nH]c2c1=O` [Example 89, 6-but-3-enyl-4-[4-chloro-3-(morpholine-4-carbonyl)phenyl]-2-methyl-1H-pyrrolo[2,3-c]pyridin-7-one]: the concentration for half-maximal inhibition (IC50) came out at 12 nM.

Consider `C=CCCn1cc(-c2ccc(F)c(C(=O)N3CCOCC3)c2)c2cc(C)[nH]c2c1=O` [Example 97, 6-but-3-enyl-4-[4-fluoro-3-(morpholine-4-carbonyl)phenyl]-2-methyl-1H-pyrrolo[2,3-c]pyridin-7-one], for which the half-maximal inhibitory concentration (IC50) was determined as 11 nM.

A further experiment addresses CECR2 (Homo sapiens (Human), UniProt Q9BXF3). Kind of experiment: CECR2 TR-FRET Binding Assay.
Conditions: not given
The source says:
IC50 Measurements for Inhibitors Using CECR2 TR-FRET Binding Assay
His/Flag epitope tagged CECR2424-538 was cloned, expressed, and purified to homogeneity.
Compound `C=CCn1cc(-c2cccc(C(=O)N(C)C)c2)c2cc[nH]c2c1=O` [Example 1, 3-(6-allyl-7-oxo-1H-pyrrolo[2,3-c]pyridin-4-yl)-N,N-dimethyl-benzamide] yielded a half-maximal inhibitory concentration (IC50) of 0.39 µM. The compound `C/C=C/Cn1cc(-c2ccc(C(=O)N3CCN(C)CC3)cc2)c2cc[nH]c2c1=O` [Example 21, 6-[(E)-but-2-enyl]-4-[4-(4-methylpiperazine-1-carbonyl)phenyl]-1H-pyrrolo[2,3-c]pyridin-7-one] returned an IC50 of 3.3 µM. With `C/C=C/Cn1cc(-c2ccc(C(=O)N3CCCC3)cc2)c2cc[nH]c2c1=O` [Example 33, 6-[(E)-but-2-enyl]-4-[4-(pyrrolidine-1-carbonyl)phenyl]-1H-pyrrolo[2,3-c]pyridin-7-one], the concentration for half-maximal inhibition (IC50) is 3.5 µM. The compound `C/C=C/Cn1cc(-c2ccc(C(=O)N(C)C)cc2)c2cc[nH]c2c1=O` [Example 36, 4-[6-[(E)-but-2-enyl]-7-oxo-1H-pyrrolo[2,3-c]pyridin-4-yl]-N,N-dimethyl-benzamide] gave a half-inhibitory concentration (IC50) of 5.7 µM.
